The full ranking holds about 18,000 sequences; the median of “TetR repression strength (sort-seq, GFP reporter)” is about 0.23, and the highest 2% start at about 0.68. Some of the results follow.
target: TetR (class B, Tn10) (UniProt P04483); test: TetR repression strength (sort-seq, GFP reporter) (relative to tetO2 = 1); higher = stronger repression; settings: E. coli
Summary of the method: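 In LB with 50 µg/mL chloramphenicol, E. coli SIG10-MAX holding a low-copy library with eight randomized operator positions between a constitutive promoter and sfGFP, plus constitutive TetR, grew for 5 h at 37 °C. FACS then sorted 10^6 cells into 13 fluorescence bins for Illumina sequencing of each bin. Repression strength equals the top bin index plus one less the read-weighted mean bin, normalized to the unaltered operator. Values from three independent transformations were averaged when reads were ≥30 in every replicate and the CV was ≤0.5.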

Chain of UniProt P04483 (P04483 whole entry): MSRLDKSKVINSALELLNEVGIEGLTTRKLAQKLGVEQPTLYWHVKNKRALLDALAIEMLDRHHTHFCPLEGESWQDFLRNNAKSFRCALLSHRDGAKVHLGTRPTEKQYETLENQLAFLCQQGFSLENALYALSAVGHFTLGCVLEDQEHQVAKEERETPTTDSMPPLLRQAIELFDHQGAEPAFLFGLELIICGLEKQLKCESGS

Row | Sequence | TetR repression strength
1 | TCCCAAAGAGTCAGTGAGA | 0.261
2 | TCCCAATTAGTATGTGAGA | 0.0876
3 | TCCCACCCAGTCAGGGAGA | 0.302
4 | TCCCGGTGAGTGAGCGAGA | 0.346
5 | TCCCAAAAAGTGTACGAGA | 0.248
6 | TCCCAATTAGTGACAGAGA | 0.512
7 | TCCCGTTAAGTCGCCGAGA | 0.0862
8 | TCCCGAGTAGTCACCGAGA | 0.195
9 | TCCCGGGTAGTCTGTGAGA | 0.26
10 | TCCCCAAGAGTAGGGGAGA | 0.144
11 | TCCCGAGAAGTAGGCGAGA | 0.101
12 | TCCCCAGAAGTGGTTGAGA | 0.399
13 | TCCCGGTTAGTATTTGAGA | 0.184
14 | TCCCATAGAGTCTGGGAGA | 0.199
15 | TCCCGGGAAGTACAGGAGA | 0.286
16 | TCCCCCTGAGTATTCGAGA | 0.332
17 | TCCCGGCGAGTGGCGGAGA | 0.322
18 | TCCCTGTGAGTGCGTGAGA | 0.35
19 | TCCCGCCTAGTCGTGGAGA | 0.466
20 | TCCCGGGCAGTTGTTGAGA | 0.115
21 | TCCCGTGCAGTGGGAGAGA | 0.177
22 | TCCCGCACAGTAGAGGAGA | 0.232
23 | TCCCCAACAGTTGGCGAGA | 0.343
24 | TCCCTTCGAGTGCATGAGA | 0.26
25 | TCCCAATGAGTGATTGAGA | 0.662
26 | TCCCAAGAAGTAGGTGAGA | 0.23

Row | Sequence | TetR repression strength
27 | TCCCGGGTAGTCATGGAGA | 0.275
28 | TCCCTGGCAGTAAGTGAGA | 0.339
29 | TCCCCGGCAGTCTTTGAGA | 0.297
30 | TCCCTTGAAGTCATCGAGA | 0.131
31 | TCCCGATCAGTAGGGGAGA | 0.171
32 | TCCCTCGCAGTGGGGGAGA | 0.2
33 | TCCCTAACAGTTGAGGAGA | 0.254
34 | TCCCGAGGAGTCTTGGAGA | 0.203
35 | TCCCTTCTAGTTTACGAGA | 0.46
36 | TCCCGCCCAGTTACTGAGA | 0.272
37 | TCCCCGGCAGTTTTTGAGA | 0.3
38 | TCCCAAGAAGTCGTAGAGA | 0.265
39 | TCCCAGGTAGTGATTGAGA | 0.139
40 | TCCCTTTCAGTGACAGAGA | 0.578
41 | TCCCCATAAGTACTAGAGA | 0.346
42 | TCCCGAGAAGTATCGGAGA | 0.145
43 | TCCCCGTCAGTGTGCGAGA | 0.333
44 | TCCCCTCGAGTGTGTGAGA | 0.125
45 | TCCCTGCGAGTATAGGAGA | 0.249
46 | TCCCCGTAAGTCCCTGAGA | 0.401
47 | TCCCCATGAGTTCTTGAGA | 0.207
48 | TCCCGCCAAGTCAGAGAGA | 0.2
49 | TCCCGCGGAGTACGCGAGA | 0.188
50 | TCCCTTTCAGTATTAGAGA | 0.518
51 | TCCCAGAGAGTTATCGAGA | 0.285
52 | TCCCGGGCAGTGGACGAGA | 0.259

Row | Sequence | TetR repression strength
53 | TCCCGGAGAGTGACGGAGA | 0.356
54 | TCCCTTAGAGTGGTAGAGA | 0.695
55 | TCCCTGCAAGTCGGAGAGA | 0.268
56 | TCCCTTAAAGTACACGAGA | 0.377
57 | TCCCCGAAAGTGTGGGAGA | 0.138
58 | TCCCGCAAAGTTCACGAGA | 0.198
59 | TCCCAATCAGTAATGGAGA | 0.363
60 | TCCCTATTAGTGGACGAGA | 0.263
61 | TCCCCTTGAGTGTGGGAGA | 0.161
62 | TCCCATATAGTGGGTGAGA | 0.0558
63 | TCCCATCAAGTGTACGAGA | 0.28
64 | TCCCCAACAGTCGCGGAGA | 0.104
65 | TCCCATTGAGTTTTAGAGA | 0.423
66 | TCCCGCACAGTGTACGAGA | 0.132
67 | TCCCAGGCAGTCTAGGAGA | 0.387
68 | TCCCGGTCAGTTATAGAGA | 0.554
69 | TCCCGTCCAGTTTAGGAGA | 0.253
70 | TCCCGTTAAGTTTCGGAGA | 0.153
71 | TCCCCTGAAGTTATCGAGA | 0.396
72 | TCCCAAGTAGTTGGGGAGA | 0.476
73 | TCCCCTGTAGTCGCTGAGA | 0.0433
74 | TCCCCGTTAGTGGATGAGA | 0.171
75 | TCCCTTTGAGTAAAGGAGA | 0.0355
76 | TCCCGCTTAGTGAAAGAGA | 0.023
77 | TCCCACGGAGTGTACGAGA | 0.3
78 | TCCCGGAAAGTACTGGAGA | 0.131

Row | Sequence | TetR repression strength
79 | TCCCAAGTAGTTGGTGAGA | 0.774
80 | TCCCGAGTAGTCACGGAGA | 0.486
81 | TCCCACGCAGTGCAGGAGA | 0.529
82 | TCCCGTTTAGTGATCGAGA | 0.244
83 | TCCCGTACAGTCTTAGAGA | 0.146
84 | TCCCGTATAGTAGTGGAGA | 0.0786
85 | TCCCTAAGAGTTGTGGAGA | 0.155
86 | TCCCTGAGAGTATTGGAGA | 0.147
87 | TCCCGTTTAGTCCGCGAGA | 0.114
88 | TCCCACTTAGTGTGAGAGA | 0.178
89 | TCCCTCGTAGTTGAGGAGA | 0.161
90 | TCCCCAGTAGTGCGTGAGA | 0.144
91 | TCCCCGAGAGTAGAGGAGA | 0.132
92 | TCCCCTATAGTATGAGAGA | 0.348
93 | TCCCCCTGAGTAGCGGAGA | 0.102
94 | TCCCCTGAAGTACATGAGA | 0.151
95 | TCCCGCAAAGTGCGGGAGA | 0.193
96 | TCCCGGACAGTTGGCGAGA | 0.277
97 | TCCCTGGCAGTGTTCGAGA | 0.419
98 | TCCCTCGAAGTGCGGGAGA | 0.25
99 | TCCCTGCAAGTTTGTGAGA | 0.586
100 | TCCCTGTCAGTTCATGAGA | 0.326
101 | TCCCAGGCAGTATGGGAGA | 0.148
102 | TCCCAATAAGTACATGAGA | 0.0585
